Reference: the supplement of paper PMC10126150
Values marked as one replicate rest on one cluster of the flow cell; about a third of the high ones do not repeat.

Each sequence was assayed on ATP (assay: switch fluorescence ratio, 500 uM ATP over buffer (Cy3 cluster intensity, sum of 5 cycles each) (fold (ratio)); higher = stronger signal-on switching upon ATP binding; sequences stand for … in TCGTCGGCAGCGTCAGATGTGTATAAGAGACAGTTTTTTTTTTTTTTTTTTTTTTTTT…TC). Details: aptamer strand: ATP DNA aptamer (quencher-CACCTGGGGGAGTATTGCGGAGGAAGG + anchor), 100 nM annealed; ATP concentration: 500 uM; one replicate.
Summary of the method: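 After annealing to 100 nM quencher-labelled ATP aptamer, Cy3-labelled switching-strand clusters on a modified Illumina MiSeq flow-cell were imaged in selection buffer. A second image followed after 15 min with 500 uM ATP at 22 °C, and five such buffer/ATP cycles were done, each separated by NaOH stripping and re-annealing. The fluorescence ratio, averaged per switch-domain sequence, is summed target-cycle over summed buffer-cycle Cy3 intensity per cluster, with clusters outside 100-1000 RFU excluded.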
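Note: ATP exposure 15 min at 22 °C before imaging.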

| Sequence | switch fluorescence ratio |
| --- | --- |
| CTGTGGCATA | 1.31 |
| CTGTGTACGG | 1.03 |
| CTGTTACACG | 1.03 |
| CTGTTACTGG | 0.981 |
| CTGTTAGCA | 1.22 |
| CTGTTATAGG | 0.996 |
| CTGTTCCCCG | 1.07 |
| CTGTTCCGCG | 1.21 |
| CTGTTCTTGT | 0.974 |
| CTGTTGGCGT | 1.05 |
| CTGTTGTCTA | 1.02 |
| CTGTTTCCAG | 1 |
| CTTAAACTAT | 0.993 |
| CTTAAAGGGC | 1.07 |
| CTTAACTCCC | 1.6 |
| CTTAAGAATC | 0.978 |
| CTTAAGAGAA | 0.988 |
| CTTAAGTACC | 1.41 |
| CTTAATGG | 0.971 |
| CTTACAGCAG | 1.14 |
| CTTACCTAGC | 1.09 |
| CTTACCTCAA | 1.16 |
| CTTACGTCCA | 1.07 |
| CTTACGTCGT | 1.02 |
| CTTACTAATG | 1.03 |
| CTTAGCTTGA | 1 |

| Sequence | switch fluorescence ratio |
| --- | --- |
| CTTAGGGGG | 1.03 |
| CTTAGTTACC | 0.999 |
| CTTAGTTCTT | 1.04 |
| CTTATAACTT | 0.976 |
| CTTATGGTAA | 1 |
| CTTATGTCAA | 1.06 |
| CTTATTGCTT | 0.954 |
| CTTATTGTTG | 0.957 |
| CTTATTTATC | 0.966 |
| CTTCACAAT | 1.86 |
| CTTCATAAT | 1 |
| CTTCATAGTC | 1.04 |
| CTTCCAACCG | 1.78 |
| CTTCCGGGGG | 1.02 |
| CTTCGAAGAG | 1 |
| CTTCGCGGGT | 3.4 |
| CTTCGTAAGA | 1.24 |
| CTTCGTGTGG | 1.02 |
| CTTCGTTAAT | 1.29 |
| CTTCTCTGAT | 0.956 |
| CTTCTTGTCG | 0.987 |
| CTTCTTTAGA | 1.02 |
| CTTGAAACTC | 1.03 |
| CTTGAAGGTT | 1.01 |
| CTTGAGACGC | 1.08 |
| CTTGAGATCG | 1 |

| Sequence | switch fluorescence ratio |
| --- | --- |
| CTTGATAGTC | 1.01 |
| CTTGCAGAGC | 0.97 |
| CTTGCGACGT | 1.16 |
| CTTGCTCAAT | 1.18 |
| CTTGGACCAA | 0.979 |
| CTTGGACCAT | 1.04 |
| CTTGGAGCCA | 0.959 |
| CTTGGAGCCG | 0.996 |
| CTTGGCCCGT | 1.01 |
| CTTGGCTACT | 1.11 |
| CTTGGGCACC | 1.02 |
| CTTGGGCGGG | 1.01 |
| CTTGGGCTCG | 1 |
| CTTGGGGTT | 1.03 |
| CTTGGGGTTT | 0.981 |
| CTTGTATTTG | 1.06 |
| CTTGTCACTG | 1.06 |
| CTTGTCTGGA | 1.03 |
| CTTGTGGATA | 1.02 |
| CTTGTGGCTC | 0.939 |
| CTTGTGTATT | 0.966 |
| CTTGTTAGGT | 0.986 |
| CTTGTTGC | 0.951 |
| CTTGTTGTC | 1 |
| CTTGTTTGTT | 1.03 |
| CTTTAACACT | 1.09 |

| Sequence | switch fluorescence ratio |
| --- | --- |
| CTTTAAGCTA | 1.12 |
| CTTTAGAGGA | 0.998 |
| CTTTAGGGGG | 1.02 |
| CTTTATAGTG | 0.946 |
| CTTTATGACC | 0.989 |
| CTTTCCACTG | 1.08 |
| CTTTCCCACA | 1.07 |
| CTTTCCGGGA | 1.37 |
| CTTTCGTATC | 1.13 |
| CTTTCTGTTC | 1.1 |
| CTTTGAAGTA | 0.967 |
| CTTTGAGAA | 0.98 |
| CTTTGAGTCC | 1.03 |
| CTTTGCTATT | 1.12 |
| CTTTGGCGCT | 0.983 |
| CTTTGGGGTA | 1.03 |
| CTTTGGTGAC | 1.06 |
| CTTTGTAACA | 0.98 |
| CTTTGTCAC | 1.02 |
| CTTTGTTGTC | 1.11 |
| CTTTTAAAAG | 1.08 |
| CTTTTAAACA | 1.04 |
| CTTTTAGAAG | 0.978 |
| CTTTTAGATT | 0.957 |
| CTTTTCAGTT | 1.02 |
| CTTTTCTACA | 0.983 |

| Sequence | switch fluorescence ratio |
| --- | --- |
| CTTTTCTGAA | 1.01 |
| CTTTTGGAGC | 1.1 |
| CTTTTGGCGT | 1.02 |
| CTTTTTGATT | 0.967 |
| GAAAAATAAA | 0.922 |
| GAAAAATGAA | 0.991 |
| GAAAACAGAA | 0.991 |
| GAAAACGTCG | 1.01 |
| GAAAATCGCT | 1 |
| GAAAATGAG | 0.992 |
| GAAAATTCAC | 1.11 |
| GAAACATGGT | 1.04 |
| GAAACCGGTG | 0.981 |
| GAAACGGCGC | 1.1 |
| GAAACGTAGA | 1.06 |
| GAAACTACAT | 1.04 |
| GAAACTCGGC | 1.17 |
| GAAACTCGTT | 1.25 |
| GAAACTCTTG | 0.937 |
| GAAACTTTAC | 1.4 |
| GAAAGGATCT | 1.03 |
| GAAAGGCATC | 1 |
| GAAAGGGACC | 0.942 |
| GAAAGTTTCA | 1.01 |
| GAAATAAACC | 1.06 |
| GAAATAACCG | 0.995 |

| Sequence | switch fluorescence ratio |
| --- | --- |
| GAAATCAGTG | 1.01 |
| GAAATCCTAT | 0.964 |
| GAAATCGGGA | 1.05 |
| GAAATCTGAT | 0.993 |
| GAAATCTGCA | 1.12 |
| GAAATGTATG | 0.99 |
| GAAATGTCTA | 1.02 |
| GAAATGTT | 1.02 |
| GAAATTAGCA | 1 |
| GAAATTGTTG | 0.976 |
| GAACAATCGT | 0.992 |
| GAACACTGCC | 1.2 |
| GAACATTAAG | 1.03 |
| GAACCAATCC | 1.47 |
| GAACCCGGGT | 0.918 |
| GAACCGGTCA | 1.03 |
| GAACCTACCT | 2.02 |
| GAACCTCTCT | 1.08 |
| GAACCTGGTA | 1.04 |
| GAACGAGTCC | 1 |
| GAACGCAGAG | 1.55 |
| GAACGCGCAA | 2.87 |
| GAACGCTA | 3.2 |
| GAACGCTAAA | 1.64 |
| GAACGTCGTA | 1.03 |
| GAACTCGTGG | 0.996 |

| Sequence | switch fluorescence ratio |
| --- | --- |
| GAACTTACTG | 1.12 |
| GAAGAAAGGC | 1.19 |
| GAAGAAAGTT | 0.956 |
| GAAGAAGGAT | 0.98 |
| GAAGAATGGG | 0.983 |
| GAAGACAGTT | 1.04 |
| GAAGACTCGT | 0.954 |
| GAAGATGAGT | 1.02 |
| GAAGATTCTG | 1.01 |
| GAAGCAAGTT | 1.6 |
| GAAGCAGGCG | 1.05 |
| GAAGCGTATT | 1.02 |
| GAAGCTCCGA | 1.07 |
| GAAGCTGCGA | 1.04 |
| GAAGCTTGCC | 1.05 |
| GAAGCTTTGC | 1.04 |
| GAAGGAAAGG | 1.05 |
| GAAGGCA | 0.983 |
| GAAGGCCGA | 0.937 |
| GAAGGCGATG | 1.03 |
| GAAGGGCCTT | 1.01 |
| GAAGGGGGCT | 1 |
| GAAGGGTCGT | 0.978 |
| GAAGGTGGCC | 0.996 |
| GAAGTAGCCA | 1.02 |
| GAAGTCTACC | 1.08 |

| Sequence | switch fluorescence ratio |
| --- | --- |
| GAAGTGCAGC | 1.04 |
| GAAGTGCTAC | 1.12 |
| GAAGTGGACT | 0.989 |
| GAAGTGGGAA | 1.2 |
| GAAGTTGGT | 1.04 |
| GAAGTTTGGC | 0.999 |
| GAATAACAAC | 1.04 |
| GAATACAGGC | 1.05 |
| GAATACATAG | 1.06 |
| GAATACCTGT | 0.99 |
| GAATACGGTG | 1.04 |
| GAATATAAAT | 1.01 |
| GAATATTGTT | 0.969 |
| GAATCAGGCC | 1.02 |
| GAATCCCGAG | 0.978 |
| GAATCCGTAA | 3.7 |
| GAATCGGGCA | 0.983 |
| GAATCGTAAG | 0.996 |
| GAATCTAAA | 0.98 |
